# Measurements published in paper PMC6919601, “Identification of Plasmodium dipeptidyl aminopeptidase allosteric inhibitors by high throughput screening” (PLoS ONE, 2019).
# Several values for one entry are separate records, joined by “and”; a condition that tells them apart may be missing. Equal entries are not always repeated. The whole screen tested about 110,000 compounds, of which about 230 (0.21%) showed an effect of 50% or more. Some of the results follow.
# Target: DPAP1 (Plasmodium falciparum, UniProt Q8IIJ9)
# Experiment: primary screen, percent inhibition; read by cleavage of a fluorogenic dipeptide substrate; higher = more effect of the substance
# Parameters: species or system P. falciparum D10 trophozoite lysates; single well
# 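Further: 30 min substrate incubation versus DMSO and 10 µM JCP410 controls.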
# Sequence of DPAP1 (Q8IIJ9 whole entry, looked up): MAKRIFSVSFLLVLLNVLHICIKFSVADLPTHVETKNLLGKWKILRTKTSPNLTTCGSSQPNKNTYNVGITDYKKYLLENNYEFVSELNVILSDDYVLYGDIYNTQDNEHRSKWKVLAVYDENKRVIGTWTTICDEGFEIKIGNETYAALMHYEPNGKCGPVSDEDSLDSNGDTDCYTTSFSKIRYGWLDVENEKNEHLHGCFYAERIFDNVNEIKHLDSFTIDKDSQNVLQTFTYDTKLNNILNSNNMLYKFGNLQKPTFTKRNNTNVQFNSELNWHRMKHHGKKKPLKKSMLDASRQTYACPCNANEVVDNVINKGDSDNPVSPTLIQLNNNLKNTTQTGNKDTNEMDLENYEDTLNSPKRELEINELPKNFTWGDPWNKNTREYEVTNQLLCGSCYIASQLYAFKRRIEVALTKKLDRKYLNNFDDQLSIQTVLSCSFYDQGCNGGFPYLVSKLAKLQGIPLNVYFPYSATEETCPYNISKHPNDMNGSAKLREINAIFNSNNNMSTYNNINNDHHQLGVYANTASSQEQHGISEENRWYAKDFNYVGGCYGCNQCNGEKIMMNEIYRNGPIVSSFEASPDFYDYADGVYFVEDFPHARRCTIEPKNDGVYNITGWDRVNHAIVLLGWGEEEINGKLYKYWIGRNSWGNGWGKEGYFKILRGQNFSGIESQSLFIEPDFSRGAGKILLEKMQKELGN
row,SMILES,% Inhibition @ 10 uM
1,Cn1c(-c2ccccc2)c(C(=O)C(=O)NC(C)(C)C)c2ccccc21,-2.28%
2,COc1ccc(C(C)NC(=O)c2ccc(C)s2)cc1 (centres unmarked),2.76%
3,CCN(CCN(C)C)CC1CC=CCC1 (centres unmarked),-1.64%
4,CO/C(O)=C1\C(C)=NC2=C(C(=O)c3ccccc32)C1c1ccccc1OC (centres unmarked),2.09%
5,O=C(CCNC(=O)Cn1ccc2ccccc2c1=O)NCCCN1CCCC1=O,2.73%
6,CC(=O)c1cc(-c2ccccc2)n(CCC(=O)NC(C)(C)C)c1C,-0.176%
7,COc1ccc(C(=O)N2CCN(C(=O)c3cc(OC)c(OC)c(OC)c3)CC2)cc1,-1.43%
8,O=C(O)c1ccccc1C(=O)Nc1cc(Cl)c(Cl)cc1Cl,1.62%
9,O=[N+]([O-])c1ccccc1CSc1nc2ccccc2s1,-0.49%
10,O=C(NCc1ccccn1)C1CCCN(S(=O)(=O)N2CCCCCC2)C1 (centres unmarked),1.76%
11,COc1ccc(N(C(C)C(=O)Nc2c(C)cccc2C)S(C)(=O)=O)cc1 (centres unmarked),-15.4%
12,COc1ccccc1C(=O)N1CCN(C(=O)c2cccc(F)c2)CC1,1.26%
13,COc1ccc(C(=O)Nc2ccc(N3CCN(Cc4ccccc4)CC3)cc2)cc1,3.91%
14,CCOc1ccc(CCN2C(=O)C3C4C=CC(C4)C3C2=O)cc1OCC (centres unmarked),1.03%
15,CCC(Cc1ccccc1)NC(=O)C1CCN(S(=O)(=O)c2cccc3nsnc23)CC1 (centres unmarked),0.208%
16,CN1CCN(c2ccc(NC(=O)COc3ccc(Br)cc3)cc2)CC1,9.5%
17,CCOc1ccc(C2C(C(=O)Nc3ccccc3C)=C(C)Nc3nc(CCCO)nn32)cc1 (centres unmarked),2.4%
18,O=C(NCc1ccco1)C1CCCN(S(=O)(=O)c2ccc3nc(O)ccc3c2)C1 (centres unmarked),-6.47%
19,CC(=O)c1cc(-c2ccccc2)n(CCC(=O)NCCc2ccc(C)cc2)c1C,-1.88%
20,O=C(NCCC1=CCCCC1)C1CCCN(S(=O)(=O)c2ccc3[nH]c(-c4ccccc4)nc3c2)C1 (centres unmarked),-8.49%
21,CCOC(=O)C1=C(O)/C(=C\c2cc(C)n(-c3cc(C)ccc3OC)c2C)N=C1C,3.47%
22,CCC(=O)C1=C(Nc2ccccc2C)CC(C)(C)CC1=O,-3.46%
23,N#Cc1cc2c(nc1SC1CC(=O)N(c3ccccc3)C1=O)CCCC2 (centres unmarked),-2.68%
24,CC(C)(C)C1CCc2c(sc(NC(=O)c3ccccc3)c2C#N)C1 (centres unmarked),9.19%
25,Cc1cc2c(cc1C)-c1ccccc1C2=O,3.05%

row,SMILES,% Inhibition @ 10 uM
1,COc1ccc(-c2noc(C(C)NC(=O)c3ccco3)n2)cc1OC (centres unmarked),-0.946%
2,CCN(CC)S(=O)(=O)c1ccc(NC(=O)c2sc3cc(OC)ccc3c2Cl)cc1,0.658%
3,COc1ccc2nc(C)n3c4ccccc4c(NC(C)=O)c3c2c1,2.4%
4,O=C(NCCCN1CCc2ccccc2C1)C1CCN(c2nc3ccccc3n3cccc23)CC1,0.658%
5,C=CC1CCC(N(Cc2ccccc2)S(=O)(=O)c2ccc(C)cc2)C(O)C1 (centres unmarked),0.611%
6,Cc1nc2ccccc2nc1C12CC3CC(CC(C3)C1)C2,-4.23%
7,Cc1ccc(CN(Cc2ccco2)C(=O)COc2c(C)cccc2C)cc1,-2.21%
8,Nc1nc2ccccc2n1CCN1CCOCC1,-2.36%
9,C/N=C1/S/C(=C\c2ccc(OC)c3ccccc23)C(=O)N1C,-2.18%
10,O=C(/C=C/c1ccc(F)cc1)C12CC3CC(CC(C3)C1)C2,8.98%
11,O=C(/C=C/c1ccc(Cl)cc1)NCCc1ccccc1,0.736% and 6.14%
12,CC(C)C[C@H](Nc1ccc2ccccc2c1)C(=O)NCC#N,-6.46%
13,Cc1nc2scc(C)n2c(=O)c1S(=O)(=O)NCC1CCN(Cc2ccc(F)cc2)CC1,1.99%
14,CCCNC(=O)c1ccc2c(c1)sc1nc(-c3ccccc3)cn12,12.5%
15,CCCCn1c(CN2CC(C)OC(C)C2)nc2c1c(=O)n(C)c(=O)n2C (centres unmarked),-4.14%
16,Cc1nccc2nc(O)c(C(=O)NC(C)CCc3ccccc3)cc12 (centres unmarked),5.47%
17,CCOc1ccc(-n2c(SCc3nc(-c4ccc(Cl)cc4)no3)nnc2-c2ccncc2)cc1,1.25%
18,O=C(CN(Cc1ccccc1)S(=O)(=O)c1ccc(F)cc1)NCCc1ccccc1,-3.94%
19,Cc1cc(=O)n2ncn(CC(C)C)c2n1,-8.37%
20,Cc1cc(O)n2nc(NC(=O)C(C)Oc3ccccc3)nc2n1 (centres unmarked),-3.08%
21,CCOCCCNC(=O)c1cc2c(O)nc3ccccc3c2s1,2.9%
22,Cc1c(C(=O)N2CCOCC2)oc2c1-c1nn(CC(=O)NCCCc3ccccc3)cc1CC2,0.335%
23,CC(C)C[C@H](NC(=O)NCc1ccccc1)C(=O)N[C@@H](CCc1ccccc1)C(=O)CO,0.744%
24,CCOc1cc(C2C(C#N)=C(N)OC3=C2C(=O)CC(C)(C)C3)ccc1OC(F)F (centres unmarked),-2.64%
25,COc1cccc(NC(=O)CC2COc3ccccc3O2)c1 (centres unmarked),2.25%

row,SMILES,% Inhibition @ 10 uM
1,Cc1cccc(C)c1N1CCc2cnn(S(=O)(=O)c3ccccc3[N+](=O)[O-])c21,0.989%
2,COc1ccc(-c2nc(CCNS(=O)(=O)c3ccc4c(c3)CCCC4)cs2)cc1OC,-0.72%
3,NC1=NC(=O)/C(=C/c2ccc(Cl)cc2Cl)S1,10.4%
4,CCS(=O)(=O)C1=NN2C(=N)/C(=C\c3cc(C)n(-c4ccc(F)cc4)c3C)C(=O)N=C2S1,-3.35%
5,Cc1nnc2c(NCC(C)c3ccccc3)nc3ccccc3n12 (centres unmarked),2.89%
6,COc1ccc(Oc2ccc(N3C(=O)C4C5CCC(C5)C4C3=O)cc2)cc1 (centres unmarked),-2.19%
7,O=C(NCC1(c2ccccc2)CCOCC1)C1(c2ccccc2)CCOCC1,-7%
8,Nc1nonc1-c1nc2ccccc2n1CC(=O)NCc1ccc(F)cc1,0.596%
9,Cc1cc(C)n(-c2nc3c(c(=O)[nH]c(=O)n3C)n2CCOc2ccccc2)n1,8.18%
10,COc1ccc(C(=O)NCCC2=CCCCC2)cc1,-10.9%
11,O=C(CC12CC3CC(C1)CC(CC(=O)N1CCCCC1)(C3)C2)N1CCCCC1,4.15%
12,O=C(Cn1nc(C(F)(F)F)cc1C1CC1)Nc1ccc(F)cc1F,-6.67%
13,CCS(=O)(=O)c1nc(S(=O)(=O)c2ccc(C)cc2)c(NCCc2ccccc2OC)s1,-4.04%
14,COc1cc(C2NC(=O)NC(c3ccccc3)=C2C(C)=O)c(Cl)cc1OCc1ccccc1 (centres unmarked),3.19%
15,COCCNC(=O)COc1ccc(S(=O)(=O)N2CCCC2)cc1,-5.56%
16,CCOC(=O)C1C(=O)C=C(c2ccccc2)CC1c1ccccc1 (centres unmarked),0.634%
17,Cc1onc(-c2ccccc2Cl)c1C(=O)N1CCN(c2ccc(F)cc2)CC1,1.8%
18,O=C(NCCc1ccccc1)c1ccc(CS(=O)(=O)Cc2ccc(Cl)cc2)o1,0.387%
19,CCOc1ccc(CNc2nn3nnnc3c3ccccc23)cc1OC,2.02%
20,COc1ccc(-c2nnc(-c3ccc(N(C)C)cc3)o2)cc1,7.37%
21,C/C(=C\c1ccc(C)o1)C(=O)c1c(C)cc(C)nc1O,6.91%
22,CC(=O)CS(=O)(=O)c1ccc(Br)cc1,1.38%
23,COc1cccc(-c2noc(COc3ccccc3)n2)c1,-0.671%
24,CCn1c2c(c(=N)c3c1CCC3)CCC2,4.01%
25,Cc1cc(Cc2cc(C)c3nc(N)sc3c2)cc2sc(N)nc12,20.4%

row,SMILES,% Inhibition @ 10 uM
1,COc1ccc(OCCCn2cnc3ccccc3c2=O)cc1,-0.641%
2,CCc1ccc(CNC(=O)C2CCCN(c3nnc(-n4c(C)ccc4C)s3)C2)cc1 (centres unmarked),-4.15%
3,O=C(CN(Cc1ccc(Cl)cc1)S(=O)(=O)c1ccccc1)Nc1ccccc1,-3.49%
4,Nc1c(O)nc2ccc(O)c3c2c1-c1ccccc1C3=O,-2.2%
5,CCN1CCC(NC2CCCCCC2)CC1,3.44%
6,CCc1nnc(SCc2ccccn2)c2cc3sc(C)cc3n12,-5.97%
7,CCc1c(C(=O)NC2CCCc3ccccc32)[nH]c(C)c1C(C)=O (centres unmarked),-3.09%
8,CC1=NC(C)=C(C(=O)OC(C)C)C(c2cccs2)/C1=C(\O)OC(C)C (centres unmarked),13.6%
9,COCc1cc(C)nc(N2CCOCC2)c1C#N,33.4%
10,COc1cccc(C2C3=C(O)CC(C)(C)CC3=Nc3nc(SCc4cccnc4)nc(O)c32)c1 (centres unmarked),7.83%
11,CCOC(=O)C1=C(CN(CCOC)Cc2ccco2)NC(=O)NC1c1ccc(OC(C)C)cc1 (centres unmarked),-1.03%
12,COc1ccccc1C(=O)Nc1cccc(NC(C)=O)c1,1.25%
13,N=C1/C(=C\c2c[nH]c3ccccc23)C(=O)N=C2SC(N3CCCC3)=NN12,0.0579%
14,C=CCN1C(=O)/C(=C\c2ccc(CC)cc2)C(C(=O)OC)=C1C,1.91%
15,O=S(=O)(Cc1ccccc1)c1nc2ccccc2n1CCOc1ccccc1,-1.69%
16,COc1ccc2[nH]c(C)c(C(C)=O)c2c1,1.38%
17,COc1cc(CNC(=O)c2cccnc2SC)cc(OC)c1OC,1.88%
18,COC(=O)c1ccc2c(c1)C(C)(C)C(/C=C/c1ccccc1)=[N+]2C,3.47%
19,COC(=O)C1=C(C)N(C2CCCCC2)C(=O)/C1=C\c1ccc(Cl)c(Cl)c1,1.27%
20,CCOC(=O)C1=C(C)N(c2ccc(OC)cc2)C(=O)/C1=C\c1ccc(OC)c(OC)c1,-3.5%
21,Cc1ccc(/C=C2/C(=O)ON=C2c2ccccc2)c(C)c1,-6.93%
22,COc1ccc(OC2=N/C(=C\c3ccco3)C(=O)N2c2ccccc2)cc1,-7.25%
23,Cc1cccc(C)c1NC(=O)c1c(Cl)cnn1C,3.05%
